The supplement of paper PMC3334620
The full ranking holds about 33,000 sequences; the median of “E-score (-0.5 to 0.5)” is about -0.01, and the highest 2% start at about 0.26. The list shows a part of the results.

The sequences below were run against Ste12 (UniProt P13574) (assay: PBM E-score (8-mer binding enrichment) (E-score (-0.5 to 0.5)); higher = stronger / more preferred TF binding; most listed sequences are background and not binding sites). Conditions: protein concentration: 200 nM; construct: GST-DNA-binding domain.
Procedure, shortened: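 Yeast transcription factors, full-length or as DNA-binding domains, were expressed with a GST tag using PURExpress in vitro transcription/translation. At about 100-200 nM they were applied to universal all-10-mer Agilent arrays, double-stranded by primer extension on fresh or once-stripped slides. Fluorescent anti-GST detected bound protein, and masliner normalised the scans. E-scores for ungapped eight-base words, pooled with reverse complements, came from the Universal PBM Analysis Suite.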

Point of comparison: ATCTAAGA, “PBM E-score” value 0.236. Against it:
- ACATGCTC — lower, -0.0805
- ATATAAGC — lower, 0.00789
- TAATGGGA — lower, -0.0633
- TAGCAGCA — lower, -0.0575
- CCGACGCG — lower, 0.0801
- TCATCCGA — lower, 0.156
- CCTCCAAC — lower, -0.0724
- ACGATATA — lower, 0.0426
- CACAGAAG — lower, 0.0368
- AGTCCAAG — lower, -0.0393
- TCTATTAA — lower, 0.194
- GGAAAGAC — lower, -0.0937
- ATAAAAGG — lower, 0.0863
- GAAATTTA — lower, 0.166
- CCTAAGCG — lower, -0.0853
- GCTGGTGA — lower, -0.00584
- GCGACCTA — lower, -0.062
- AGGACAAC — lower, -0.053
- GCAATACC — lower, -0.112
- GTTAGCCA — lower, -0.00505
- AACTACGT — lower, -0.146
- ACATATAA — higher, 0.241
- ATTACAGG — lower, 0.139
- ATGACAGA — lower, -0.0195
- GGACCGAA — lower, 0.0478
- AAGGGAAC — lower, -0.0941
- ACGGCCGT — lower, -0.0176
- ACGTAACA — lower, 0.125
- ATGTGTGC — lower, -0.0685
- CTTGCGGA — lower, -0.232
- TAGTGCAA — lower, 0.0163
- CATAACGA — lower, 0.0786
- CGCAATAA — lower, 0.152
- CCGAACCG — lower, -0.0618
- AGCGACAT — lower, -0.0374
- ATTATACA — lower, 0.00029
- CAAGGAGA — lower, -0.168
- AAAACGAT — lower, 0.0767
- CAAATCGC — lower, -0.109
- GAGGGACC — lower, -0.154
- CTTAAGTC — lower, -0.0579
- ACGCTCGG — lower, -0.0861
- AACGCCCT — lower, -0.0731
- CGGAGGAG — lower, 0.00265
- CAACAGCG — lower, 0.0502
- GGGGCCAC — lower, -0.0652
- AGTTGGTC — lower, -0.0312
- ATTCGAAA — higher, 0.286
- GCCGGCAC — lower, 0.185
- GGATGCAC — lower, -0.116
- ATATGCAT — lower, -0.00898
- CAGGTCCC — lower, -0.104
- AGCACATG — lower, 0.0517
- GTATAGTA — lower, 0.0829
- CTCAAAGA — lower, -0.121
- AGAGTGTC — lower, -0.038
- ACAGAAAG — lower, 0.171
- CACGAGTG — lower, -0.123
- GAAATAAC — lower, 0.121
- AACAGTGC — lower, -0.0232
- CTTAATAA — lower, 0.232
- GAGACAAA — lower, 0.0489
- CGCGCCCA — lower, 0.0944
- TAACTTAA — lower, 0.181
- TATCAACA — lower, 0.149
- ACGGCTAA — lower, 0.0492
- GCAGTCGA — lower, -0.137
- GGCGGTGA — lower, 0.0499
- ACCTTTAC — lower, 0.122
- CGTCAAAA — lower, 0.222
- ATATGGAA — lower, 0.152
- GTGGTAAC — lower, 7e-05
- AGCGCTTG — lower, 0.0698
- CGTATTGA — lower, -0.0513
- AAGAATGC — lower, 0.0457
- ACCCTCCG — lower, -0.135
- ACCGGACG — lower, 0.0849
- CTGGTAGC — lower, -0.0426
- CATAGTCG — lower, -0.0118
- AACAACAG — lower, 0.0455
- CAAGGACA — lower, -0.162
- ATATCTTG — lower, 0.0172
- ACTATAAA — higher, 0.241
- GGGCACTA — lower, -0.26
- AATCGACG — lower, -0.226
- CGATTGGA — lower, 0.0116
- GTCGTCAA — lower, -0.0716
- GAATATAC — lower, -0.00195
- AATCTCGT — lower, -0.113
- CCTCACAA — lower, 0.116
- TAAAAATA — higher, 0.318
- ATGAAGTA — lower, -0.0129
- AGTTCAGC — lower, -0.18
- ACACCGAA — lower, 0.108
- AGCGTCTA — lower, -0.136
- GTCCGTCA — lower, -0.0791
- AGAAACCT — lower, 0.0443
- ACGTGACA — lower, -0.0169
- ACTGGACA — lower, -0.139
- GACCGAGC — lower, -0.0435
- ACTACTCT — lower, -0.01
- AATGTATA — lower, -0.0582
- GCATGGAA — lower, 0.107
- CAGCGTTC — lower, -0.188
- ATAGTATA — lower, 0.154
- AATAGGAC — lower, -0.0484
- AATCGTAC — lower, 0.00489
- GCTTTATA — lower, 0.132
- GCAATAAC — lower, 0.0195
- GACCGACA — lower, -0.099
- ACTCAATA — lower, 0.162
- GAATCGAA — higher, 0.296
- CATGTACG — lower, -0.0362
- CAGTCAGC — lower, -0.105
- CTTCAAAA — lower, 0.191
- AAAATGGA — higher, 0.237
- GGATGACC — lower, -0.203
- AGAGTAAG — lower, -0.0257
- CCGTGCAA — lower, -0.0521
- AGTGTCAC — lower, -0.00393
- AACACTAT — lower, 0.101
- GACCAGCC — lower, 0.0084
- AGGGGTCG — lower, -0.144
- CTGCTGAA — lower, 0.0211
- CTGTCGTC — lower, 0.0262
- ATGAAACA — higher, 0.495
- AGCAGCAC — lower, -0.131
- TACAACTA — higher, 0.268
- CTCATTAA — lower, 0.111
- TCATTGGA — lower, 0.0443
- CCATTGCG — lower, -0.0146
- CCCTATGA — lower, -0.0337
- TGAGTACA — lower, -0.0797
- ATAAGCAA — lower, 0.148
- ATGCGGTG — lower, -0.0382
- CCTTGAAA — lower, 0.21
- GAACCATA — lower, 0.0795
- AAGGCACT — lower, -0.0898
- TGAGACAA — higher, 0.274
- ACACCTCG — lower, -0.00674
- GAGGACGA — lower, -0.111
- ATTGCACG — lower, 0.206
- CTCCCTGC — lower, -0.133
- GTGCGAGA — lower, 0.127
- CGGTCGAG — lower, 0.0722
- CTCTCTCC — lower, -0.224
- CCGGTAGC — lower, -0.213
- CTCAGTTA — lower, 0.0251
- CGAAGAAC — lower, 0.0849
- AGTCTCTA — lower, -0.102
- AATTAGTA — higher, 0.263
- GCAGGAAA — lower, 0.0227
- TGATGAAA — higher, 0.258
- ATTGTTAC — higher, 0.297
- CGGTTCGA — lower, 0.0766
- AGAGCCGG — lower, -0.0983
- TAAGGAAA — lower, -0.0536
- ATTATCTC — lower, 0.104
- CAGTAGAG — lower, -0.141
- CTGGCAAG — lower, -0.00041
- AGCTTATG — lower, -0.0351
- ACAAGTTA — lower, 0.0925
- ACGTCTGC — lower, -0.226
- AAAAGACG — lower, 0.0308
- AGGACGCG — lower, -0.187
- CACGACCG — lower, -0.221
- AGCTCGCG — lower, 0.0164
- ACGCCGAG — lower, 0.095
- GAGTCGGA — lower, 0.126
- GGTGCAAC — lower, -0.255
- CCAGTATA — lower, 0.00607
